Laboratory results: the supplement of paper PMC5499739
Over roughly 16,000 sequences, “Z-score” has its median near -0.37; the highest 2% begin near 3.2. This is one part of the list.

test system: RBM10 RRM1-ZnF (GST-tagged construct); experiment: RNAcompete 7-mer binding Z-score; higher = stronger binding preference
Procedure, shortened: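 A one-sided Z-score for enrichment, taken across the probes containing each heptamer motif, was assigned to every such motif. The RNA came from a designed pool of 241 399 sequences up to 41 nt (1.5 nmol), bound by 20 pmol of GST-tagged RBM10 constructs in 1 ml Hepes pH 7.8 buffer with glutathione Sepharose beads for 30 min at 4°C. Four 2-min washes at 4°C preceded identification of bound RNA by microarray hybridisation.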

Row | Sequence | RNAcompete 7-mer binding Z-score
1 | CUUAUUU | -0.854
2 | UUGGACG | 1.06
3 | CAAGACU | -0.428
4 | AAGUUAA | 0.102
5 | AUGUCAU | -0.399
6 | CGGCGUG | 0.839
7 | UGGGCAC | 1.53
8 | CCUCUCA | -0.766
9 | CCUAUAC | -0.714
10 | ACGUAUA | -0.201
11 | GCUUACC | -0.604
12 | AUCGAAC | -0.305
13 | AACCCAU | -0.841
14 | GCUGUCA | -0.49
15 | UCACUGC | -0.772
16 | GAACGGG | 4.25
17 | AGAGGAU | 1.4
18 | CCGCACC | -0.509
19 | GUGAACU | 0.0853
20 | ACCCAUA | -0.886
21 | UAGCUAG | -0.123
22 | UGUGAGC | 0.212
23 | GACAGCC | -0.539
24 | CAACGCA | -0.607

Row | Sequence | RNAcompete 7-mer binding Z-score
25 | UCGUAAC | -0.62
26 | GUGCUAU | -0.256
27 | CUAAGCG | -0.389
28 | CUCUCUC | -0.629
29 | GAGUUGG | 3.12
30 | AGCCAUG | -0.5
31 | AAAGGAA | 3.32
32 | UCAGGCU | -0.113
33 | AAUCUAA | -0.617
34 | CUUUGAG | -0.496
35 | GUGCGAC | 0.407
36 | GCGGAUG | 2.2
37 | AACACCG | -0.236
38 | CGGAUGG | 2.38
39 | UACUUUA | -0.837
40 | UCCGCUG | -0.61
41 | GCCUCUG | -0.75
42 | ACAUAUU | -0.649
43 | CUCCUGU | -0.737
44 | CCCGUGG | 0.644
45 | GAAUAAU | -0.279
46 | CAGAGGU | 1.25
47 | GUACACG | 0.358
48 | CGUUGGU | 0.576

Row | Sequence | RNAcompete 7-mer binding Z-score
49 | GGUUUUC | 0.462
50 | AGCUCUU | -0.782
51 | AGUUCGG | -0.00571
52 | GCUUGCU | -0.733
53 | CACGUGA | 0.0528
54 | CGCUUGA | -0.675
55 | CAUAGUG | 0.121
56 | GCGUCCC | -0.422
57 | CGGGUUA | 1.95
58 | AUUCGAG | -0.266
59 | AGUCACU | -0.441
60 | GACGAGC | 0.043
61 | GCGCCAA | -0.539
62 | UACAGCU | -0.707
63 | ACGUUUU | -0.834
64 | GGAUUAA | 0.807
65 | GGCAGUA | 1.1
66 | ACUGGCA | -0.178
67 | AAAGGCG | 1.21
68 | UUCCGGU | -0.587
69 | GUGGCAC | 0.907
70 | GACUGCA | -0.389
71 | AAUGGGU | 3.89
72 | CCGCUCG | -0.617

Row | Sequence | RNAcompete 7-mer binding Z-score
73 | UCCGGGU | 0.716
74 | ACCGGCC | -0.672
75 | ACGAUGC | -0.412
76 | UGUUAGG | 0.797
77 | ACCUAAG | -0.652
78 | UCUCAAC | -0.672
79 | GUAAAGG | 2.92
80 | AGCCAAC | -0.35
81 | ACGAGAU | -0.201
82 | ACGAUAA | -0.243
83 | UUUAAAA | -0.542
84 | AUUAGAU | -0.24
85 | UAUCAAA | -0.532
86 | AGUCCGC | -0.62
87 | GAAUUAU | -0.181
88 | UCUAAGC | -0.711
89 | ACCAUGG | 0.0788
90 | GGCCACC | -0.409
91 | AUAUCGA | -0.435
92 | GUGGAUA | 2.51
93 | CAUGUCU | -0.844
94 | UUGGCGA | 0.605
95 | CGUGUUA | -0.652
96 | AUACACA | -0.483

Row | Sequence | RNAcompete 7-mer binding Z-score
97 | GGGGUCG | 2.62
98 | CGUGUAC | -0.295
99 | GAGGGUA | 3.95
100 | GUACCUU | -0.73
101 | UAAUGGA | 1.93
102 | CGGGUGC | 1.85
103 | UGCCCUC | -0.617
104 | CGCCUCU | -0.802
105 | CUACCCG | -0.737
106 | GAUGAUG | 1.79
107 | AACUAUU | -0.707
108 | GAUCUCU | -0.876
109 | ACACUAC | -0.629
110 | CCCCAAG | -0.275
111 | GAUUAAU | -0.246
112 | UCUAGAA | -0.584
113 | CUAUGCG | -0.483
114 | GGAGCAU | 1.24
115 | AUAGGUA | 1.89
116 | GAAUACU | -0.389
117 | UAAUCCG | -0.578
118 | ACUUACA | -0.629
119 | AGCGAAG | 0.875
120 | AGCCUGU | -0.668

Row | Sequence | RNAcompete 7-mer binding Z-score
121 | CAUUGAG | -0.106
122 | CGCGUCC | -0.578
123 | AGCUAGU | -0.217
124 | CGUUGGA | 0.446
125 | CCUGUUA | -0.896
126 | GGACGAC | 1.03
127 | GCAAGGA | 2.4
128 | GCCUCAC | -0.581
129 | AAGGGAG | 3.99
130 | CCCGGGG | 0.878
131 | GAGAGUG | 1.71
132 | GGAUCGU | 0.394
133 | GACGUCC | -0.766
134 | UAUGUCG | -0.34
135 | GACACUG | -0.318
136 | AUGCAUG | -0.0512
137 | CUAACUC | -0.733
138 | GCGUCUA | -0.454
139 | CUCCAUU | -0.818
140 | UAUUCCU | -0.73
141 | GGUAAGC | 1.81
142 | UUCAAAC | -0.828
143 | GGUACUA | 0.641
144 | CGUGACU | -0.311

Row | Sequence | RNAcompete 7-mer binding Z-score
145 | UCAUCUA | -0.737
146 | AUCAACC | -0.759
147 | UAAUGUG | 0.706
148 | UUGGAAA | 0.797
149 | UGAGGGG | 3.64
150 | GGUGGAG | 4.02
151 | UCUUAGG | -0.327
152 | UUAUCCU | -0.867
153 | UCGCGUG | -0.022
154 | GUGGCGG | 3.26
155 | UCCGCGA | -0.688
156 | CUUCGGC | -0.759
157 | UAGGGAA | 3.15
158 | GAAGGGC | 2.98
159 | GUAACUG | 0.15
160 | GCACGUG | 0.17
161 | CGCGGGU | 1.84
162 | AGGUCUU | -0.552
163 | GGUUAAC | 1.13
164 | CUUCCUG | -0.711
165 | GACCAUA | -0.867
166 | ACGAGGG | 3.35
167 | CGGCCAC | -0.275
168 | ACACAAU | -0.642

Row | Sequence | RNAcompete 7-mer binding Z-score
169 | UUCGCCU | -0.811
170 | UAUGGGC | 1.47
171 | GUGUACU | -0.295
172 | GAACGAG | 0.923
173 | UCCAACA | -0.73
174 | CUAGACU | -0.578
175 | UGCGUGG | 1.54
176 | GAUCGCC | -0.795
177 | AAUCUCG | -0.675
178 | CCCAAGU | -0.496
179 | UGUACAA | -0.269
180 | UGAAUUC | -0.675
181 | UUAUCCG | -0.655
182 | UUUUACU | -0.808
183 | CUGCACA | -0.435
184 | ACGGUUA | 0.79
185 | AAGUAGA | 0.725
186 | GGCGGAU | 1.75
187 | UCACGUU | -0.779
188 | CAACACA | -0.295
189 | CUGGGCU | 0.511
190 | UGACUCG | -0.487
191 | CCAGACC | -0.642
192 | CAAAAAG | -0.363

Row | Sequence | RNAcompete 7-mer binding Z-score
193 | ACGGCUC | -0.386
194 | UGGGACA | 2.09
195 | GGCCAGC | -0.119
196 | GCUAGCA | -0.269
197 | CGAAGGU | 1.5
198 | UGUGGCU | 0.368
199 | UUACUGU | -0.558
200 | GGAACUG | 0.949
201 | AGGGAAG | 4.53
202 | UUAAUGU | -0.106
203 | UGGUAUC | 0.27
204 | UGCGAGU | 0.166
205 | CUAUACU | -0.73
206 | AAUGAGC | 0.124
207 | GUCACAG | 0.257
208 | UCUCAGU | -0.668
209 | UACCAAA | -0.529
210 | CAUACAG | -0.34
211 | CUGUACU | -0.743
212 | CUACAUA | -0.493
213 | CGCCGUC | -0.457
214 | AGAUACU | -0.733
215 | GUAGACG | 1.3
216 | CGUAUCU | -0.857

Row | Sequence | RNAcompete 7-mer binding Z-score
217 | AACUACU | -0.529
218 | AGCAUAG | 0.482
219 | UUCGAUG | -0.269
220 | AGAGUGC | 0.121
221 | CUGUCGU | -0.581
222 | CCCGGAA | -0.5
223 | GCGCACU | -0.295
224 | CCGAUUG | -0.629
225 | GCGCAGC | 0.0658
226 | CGAUGCU | -0.743
227 | CGGCUCA | -0.467
228 | GCGUAUC | -0.513
229 | UCUUAAG | -0.6
230 | ACGCAUU | -0.516
231 | GACUCGG | -0.204
232 | UAGGCGA | 1.14
233 | AGAGAAA | 0.495
234 | AUCUUUU | -0.805
